The list shows a part of the results. At the low end of the ranking, values are background and their order means little.
biological target: SIX1-Q177R homeodomain (UniProt Q15475); assay: universal protein binding microarray; settings: Universal all-10-mer PBM (8x60K, AMADID 030236), 300 nM GST-tagged protein, Alexa Fluor 488 anti-GST; buffer, salt, pH and temperature not stated; high values mean tight binding; most listed sequences are background and not binding sites; double strand, one strand shown

Sequence | binding signal [E-score]
CGGACTGA | -0.23
CACTCAAC | 0.168
CTTACGGA | -0.114
GGACCAGA | -0.0439
GACATTCC | -0.119
AGACGAAG | -0.165
ACATGGAT | -0.0392
CGGGAGCC | 0.0631
GGCAGGAC | 0.11
GCACCGTA | 0.201
AGCGGGCA | -0.159
ATACTTGC | -0.119
ACCCCCTC | 0.324
AGTGAGGG | 0.00977
CAACTCGG | 0.114
CCAGGCAC | -0.0485
CAGTTCAC | -0.0459
GTCCAACA | 0.216
ACCCTTAA | 0.175
TCACCAGA | -0.0487
TAATCGGA | 0.0637
CACGTCCA | 0.108
ATACGCCA | 0.151
GAGAGCTC | -0.242
CAATGGGC | -0.085

Sequence | binding signal [E-score]
ATTCGTAG | 0.028
CTGCAGTC | -0.144
ACGATTAC | 0.0246
CTTTTTAC | -0.0364
AGACCAAA | -0.37
CTTAACAC | 0.435
GATGACAC | 0.466
ACGGTCGC | -0.237
CGTAACAC | 0.41
GGTCTTAA | -0.02
CGAGAGCG | -0.244
CCGAGTTC | 0.0412
CGTAAGCA | -0.172
CTCCACAG | -0.051
AGATAAAC | -0.122
ACCGCTTG | 0.067
GTATTGCA | 0.128
AGAGGGTC | -0.0271
CTCACTAA | -0.0499
CTGAAGTA | -0.321
AACGCATT | -0.0289
CACTGCGA | 0.143
CAGCCGGC | -0.101
ATCTCGAG | -0.0565
GAGGGGCA | -0.00898

Sequence | binding signal [E-score]
CCTCGCGC | -0.162
AAAGAATT | -0.234
AACCGAGT | 0.0654
GACATGAC | 0.0601
CGCCACTC | 0.125
AGAGGTTG | -0.0594
CAAACGAC | -0.0375
AACCCAAG | -0.0688
CTATGTAA | -0.0875
CTTTAGAA | -0.108
AGGAGCGG | 0.0175
GAGACTTA | -0.0386
ACAAGCCC | -0.0233
AGCTACTA | -0.115
CCATAGTA | 0.00935
GGGGCCAC | -0.129
GGACCGCA | -0.0821
TACTGGAA | 0.0148
GAGCATGC | -0.182
AAGTACAC | 0.425
AATCGGCC | -0.169
CCACACGG | 0.197
CTTAGTGC | -0.179
AATAATTG | -0.12
ACACACGG | 0.301

Sequence | binding signal [E-score]
GAGAAATC | -0.342
CGAACCGC | 0.0107
ATACGACC | -0.0273
CCAGTCCA | 0.0437
AATACGAA | 0.00567
AGCCGAGG | 0.0198
CAGGAAGA | -0.111
AGATTGCA | -0.0732
CCTTGACG | -0.102
ATCAGTAG | -0.048
CCGTGAAC | 0.0207
GCACATCA | -0.282
CGCCCTAC | 0.0722
CTAGTCTA | -0.133
AAGATAGT | -0.03
TGTGGGAA | 0.0276
CAAACCAC | 0.0221
GAGGGACA | 0.0753
ATGGCCAG | -0.198
AAGTAGAT | -0.16
TCCCGGCA | -0.015
TACTATAA | 0.0696
AATGACCG | -0.135
CATTGGAG | -0.0307
GACCGTTA | -0.192

Sequence | binding signal [E-score]
AATGTCAC | 0.0557
CAAGGGGC | 0.0814
GAAGAACC | 0.052
CTTGGCAA | -0.207
ATGAAGTC | -0.161
AACGTATG | -0.324
ACATAGGA | -0.043
TACTTAGA | -0.00505
GTAGAAAA | -0.166
GAGTATGA | 0.0473
GTGACATA | -0.0585
TCGCTAAA | -0.044
CGGGGTTA | 0.22
AGGATGGG | 0.0362
ACTAAGCA | -0.0899
AAGTTGAA | -0.0495
AACGCGTA | -0.221
CGCACGAC | 0.187
CATCATAC | 0.034
AACAACTT | -0.277
ACGAACCC | 0.118
CAACTACG | 0.116
TCAGCCCA | 0.0774
CGGATCTA | 0.00671
GGAATCAA | -0.0343

Sequence | binding signal [E-score]
ACAGGTAT | 0.0906
CACACTGG | 0.264
AAGGCGCG | -0.0377
AAATGCGG | -0.0522
ACATGTGC | -0.141
GGGGTCCA | 0.268
AACCCGGC | -0.0133
CTCGACTA | -0.111
ATTTACAA | 0.0157
ATGTTGCG | -0.195
AGACGACT | 0.0752
GGTCCTCA | -0.0992
AGCTAGAT | 0.008
AAAATCGC | -0.33
ACTTTGGC | -0.198
AGCGTTGC | -0.234
CATACGAG | -0.224
AAAACCTG | -0.0973
CAACGTAC | -0.000275
CATTACTC | 0.173
GCGCCTAA | -0.243
TACCATAA | 0.0229
ACTCTGAC | 0.172
CGTAGACG | -0.324
TCATGAAA | 0.00196

Sequence | binding signal [E-score]
GGCTGAAC | 0.133
CAGTGATG | -0.0618
GCAGCACC | 0.219
ATATTATC | -0.138
GAGTTTAC | 0.00043
AGGGCGGG | 0.0483
ATGATACC | 0.335
CCGCGACC | -0.0328
TACCCTAA | 0.0683
ACTGGACT | -0.0611
CGACTCAG | -0.093
ACCCACCC | 0.276
ATTTTCTC | -0.281
CCCATTAC | 0.0463
CATATATA | -0.113
ATATGCGG | -0.0142
TCTCCAGA | -0.18
CAATATGA | -0.0552
ATTTCCAC | -0.119
GGAGGGGA | 0.158
ACTTTTAA | -0.0597
CGCTAGTA | -0.0769

Source: paper PMC10668032
